Results reported in publication PMC5404542, “In Vitro and In Vivo Antifungal Profile of a Novel and Long-Acting Inhaled Azole, PC945, on Aspergillus fumigatus Infection” (Antimicrobial Agents and Chemotherapy, 2017).
Converted amounts (≈) assume the structure as drawn. “Also recorded” adds a separate entry of the source. Where two headings read alike, the source gives them in different places. Marks after values point to notes of the source that are not given here.

What was measured:
[1] = tested on: four itraconazole-susceptible A. fumigatus strains (ATCC 1028, ATCC 10894, ATCC 13073, ATCC 16424); assay: Antifungal activity by CLSI methodology; conditions: for MIC50 / MIC: Aspergillus fumigatus; for MIC50: ATCC1028|ATCC10894|ATCC13073|ATCC16424, read-out: MIC50, Median; for MIC: ATCC1028|ATCC10894|ATCC13073|ATCC16424, read-out: MIC, Median
[2] = tested on: A. fumigatus strains (NCPF2010, AF294, AF293, AF72, AF91, TR34/L98H); conditions: for IC50 / IC90: Aspergillus fumigatus; for IC90 (OD): TR34/L98H mutation
[3] = NCPF2010, 48 h, read-out: IC50 (OD), strain AF72, G54E mutation, 48 h, 0.5% BSA
[4] = NCPF2010, 48 h, read-out: IC50 (OD), strain AF91, M220V mutation, 48 h, 0.5% BSA
[5] = NCPF2010, 48 h, read-out: IC50 (OD), strain AF293, no resistance mechanism, 48 h, 0.5% BSA
[6] = NCPF2010, 48 h, read-out: IC50 (OD), strain AF294, no resistance mechanism, 48 h, 0.5% BSA
[7] = NCPF2010, 48 h, read-out: IC50 (OD), strain NCPF2010, no resistance mechanism, 48 h, 0.5% BSA
[8] = NCPF2010, 48 h, read-out: IC50 (OD), strain TR34/L98H, TR34/L98H mutation, 48 h, 0.5% BSA
[9] = NCPF2010, 48 h, read-out: IC90 (OD), strain AF72, G54E mutation, 48 h, 0.5% BSA
[10] = NCPF2010, 48 h, read-out: IC90 (OD), strain AF91, M220V mutation, 48 h, 0.5% BSA
[11] = NCPF2010, 48 h, read-out: IC90 (OD), strain AF293, no resistance mechanism, 48 h, 0.5% BSA
[12] = NCPF2010, 48 h, read-out: IC90 (OD), strain AF294, no resistance mechanism, 48 h, 0.5% BSA
[13] = NCPF2010, 48 h, read-out: IC90 (OD), strain NCPF2010, no resistance mechanism, 48 h, 0.5% BSA
[14] = NCPF2010, 48 h, read-out: IC90 (OD), strain TR34/L98H, TR34/L98H mutation, 48 h, 0.5% BSA
[15] = strain TR34/L98H, 48 h, 0.5% BSA
[16] = itraconazole-resistant strains with M220V and G54E mutations

Compound	MIC50 [1] [µg/mL]	MIC [1] [µg/mL]	IC50 [2, 3] [µg/mL]	IC50 [2, 4] [µg/mL]	IC50 [2, 5] [µg/mL]	IC50 [2, 6] [µg/mL]	IC50 [2, 7] [µg/mL]	IC50 [2, 8] [µg/mL]	IC90 [2, 9] [µg/mL]	IC90 [2, 10] [µg/mL]	IC90 [2, 11] [µg/mL]	IC90 [2, 12] [µg/mL]	IC90 [2, 13] [µg/mL]	IC90 [2, 14] [µg/mL]	IC90 (OD) [2, 15]	MIC, Median ([1]; CLSI, determined visually, four strains)	IC50 ([2]; NCPF2010, read-out: IC50 (OD) values, range over strains, itraconazole-susceptible and -resistant A. fumigatus) [µg/mL]	fold more potent than posaconazole [2, 16] [fold]	fold more potent than voriconazole [2, 16] [fold]	fold more potent than posaconazole (IC50) ([2]; strain TR34/L98H) [fold]
CC[C@@H]([C@H](C)O)n1ncn(-c2ccc(N3CCN(c4ccc(OC[C@@H]5CO[C@@](Cn6cncn6)(c6ccc(F)cc6F)C5)cc4)CC3)cc2)c1=O [Posaconazole, posaconazole]	0.015 (≈ 0.0214 µM)	0.047 (≈ 0.0671 µM)	0.032 (≈ 0.0457 µM)	0.024 (≈ 0.0342 µM)	0.01 (≈ 0.0143 µM)	0.0056 (≈ 0.00799 µM)	0.0086 (≈ 0.0123 µM)	0.086 (≈ 0.123 µM)	0.19 (≈ 0.271 µM)	0.12 (≈ 0.171 µM)	0.028 (≈ 0.04 µM)	0.011 (≈ 0.0157 µM)	0.014 (≈ 0.02 µM)	0.13 (≈ 0.186 µM)	–	–	–	–	–	–
CCC(C)n1ncn(-c2ccc(N3CCN(c4ccc(OCC5COC(Cn6cncn6)(c6ccc(Cl)cc6Cl)O5)cc4)CC3)cc2)c1=O (stereo not drawn) [Itraconazole, itraconazole]	–	–	0.43 (≈ 0.609 µM)	0.26 (≈ 0.368 µM)	0.032 (≈ 0.0453 µM)	0.041 (≈ 0.0581 µM)	0.057 (≈ 0.0808 µM)	0.22 (≈ 0.312 µM)	> 1	> 1	0.23 (≈ 0.326 µM)	0.052 (≈ 0.0737 µM)	0.085 (≈ 0.12 µM)	> 1	failed to achieve 90% inhibition	–	–	–	–	–
CC[C@H](C)C[C@H](C)CCCCCCCCC(=O)N[C@H]1C[C@@H](O)[C@@H](NCCN)NC(=O)[C@@H]2[C@@H](O)CCN2C(=O)[C@H]([C@H](O)CCN)NC(=O)[C@H]([C@H](O)[C@@H](O)c2ccc(O)cc2)NC(=O)[C@@H]2C[C@@H](O)CN2C(=O)[C@H]([C@@H](C)O)NC1=O [Caspofungin, caspofungin]	–	–	0.1 (≈ 0.0915 µM)	0.072 (≈ 0.0659 µM)	> 1	> 1	0.11 (≈ 0.101 µM)	0.082 (≈ 0.075 µM)	> 1	> 1	> 1	> 1	> 1	> 1	failed to achieve 90% inhibition	–	–	–	–	–
C[C@@H]1[C@H](O)[C@@H](C)/C=C/C=C/C=C/C=C/C=C/C=C/C=C/[C@H](O[C@@H]2O[C@H](C)[C@@H](O)[C@H](N)[C@@H]2O)C[C@@H]2O[C@](O)(C[C@@H](O)C[C@@H](O)[C@H](O)CC[C@@H](O)C[C@@H](O)CC(=O)O[C@H]1C)C[C@H](O)[C@H]2C(=O)O [Amphotericin B, amphotericin B]	–	–	0.18 (≈ 0.195 µM)	0.42 (≈ 0.455 µM)	0.24 (≈ 0.26 µM)	0.21 (≈ 0.227 µM)	0.23 (≈ 0.249 µM)	0.14 (≈ 0.152 µM)	0.64 (≈ 0.693 µM)	> 1	0.85 (≈ 0.92 µM)	0.79 (≈ 0.855 µM)	0.48 (≈ 0.519 µM)	0.29 (≈ 0.314 µM)	–	–	–	–	–	–
Cc1cc(N2CCN(c3ccc(C(=O)Nc4ccc(F)cc4)cc3)CC2)ccc1OC[C@@H]1CO[C@@](Cn2cncn2)(c2ccc(F)cc2F)C1 [PC945, 4-[4-(4-{[(3R,5R)-5-(2,4-difluorophenyl)-5-(1H-1,2,4-triazol-1-ylmethyl)oxolan-3-yl]methoxy}-3-methylphenyl)piperazin-1-yl]-N-(4-fluorophenyl)benzamide]	0.011 (≈ 0.0161 µM)	0.031 (≈ 0.0454 µM)	0.0061 (≈ 0.00893 µM)	0.0081 (≈ 0.0119 µM)	0.0012 (≈ 0.00176 µM)	0.002 (≈ 0.00293 µM)	0.0084 (≈ 0.0123 µM)	0.034 (≈ 0.0498 µM)	0.029 (≈ 0.0425 µM)	0.059 (≈ 0.0864 µM)	0.0041 (≈ 0.00601 µM)	0.0043 (≈ 0.0063 µM)	0.01 (≈ 0.0146 µM)	> 1	failed to achieve 90% inhibition; also recorded: did not achieve 90% inhibition of growth	0.031* μg/ml	0.0012 to 0.034 (≈ 0.00176 to 0.0498 µM)	2	6	2.5
C[C@@H](c1ncncc1F)[C@](O)(Cn1cncn1)c1ccc(F)cc1F [Voriconazole, voriconazole]	0.14 (≈ 0.401 µM)	0.5 (≈ 1.43 µM)	0.019 (≈ 0.0544 µM)	0.12 (≈ 0.344 µM)	0.25 (≈ 0.716 µM)	0.082 (≈ 0.235 µM)	0.16 (≈ 0.458 µM)	> 1	0.062 (≈ 0.177 µM)	0.38 (≈ 1.09 µM)	0.74 (≈ 2.12 µM)	0.27 (≈ 0.773 µM)	0.2 (≈ 0.573 µM)	> 1	failed to achieve 90% inhibition	–	–	–	–	–
